{"source": "patent US20250213715A1", "about": "“ANTI-CSPG4 BINDING AGENTS, CONJUGATES THEREOF AND METHODS OF USING THE SAME” (Ardeagen Corporation, priority 2020, published 2025)", "molecules": {"B1": {"name": "ARD107-vcMMAE (ARD107-mc-vc-PAB-MMAE), prepared by stochastic conjugation (other)", "heavy": "EVQLQESGPGLVKPSQSLSLTCSVTGYSITSGYYWNWIRQFPGNKLEWMGYITYDGSNNYNPSLKNRISITRDTSKNQFFLKLNSVTTEDTATYYCADFDYWGQGTTLTVSS[… human IgG1 constant region …]", "light": "DIVLTQSPSSLSASLGDRVTISCSASQGIRNYLNWYQQRPDGTVKLLIYYTSSLHSGVPSRFSGSGSGTDYSLTISNLEPEDIATYYCQQYSKLPWTFGGGTKLEIKRTVAAPSVFIFPPSDEQLKSGTASVVCLLNNFYPREAKVQWKVDNALQSGNSQESVTEQDSKDSTYSLSSTLTLSKADYEKHKVYACEVTHQGLSSPVTKSFNRGEC", "modifications": "mc-vc-PAB-MMAE drug linker on cysteines freed by TCEP reduction; positions not given; average drug loading 4 per antibody"}, "B2": {"name": "ARD107-vcMMAE (DAR4): ARD107-vcMMAE enriched for 4-load by controlled reduction and conjugation (conjugate)", "heavy": "B1 heavy", "light": "B1 light"}, "B3": {"name": "ARD107-SN38 (conjugate)", "heavy": "B1 heavy", "light": "B1 light"}, "B4": {"name": "ARD107-vcMMAE (HIC): ARD107-vcMMAE column purified (HIC) for the 4-loaded species (conjugate)", "heavy": "B1 heavy", "light": "B1 light"}, "B5": {"name": "ARD107-CL2A-SN38 (other)", "heavy": "B1 heavy", "light": "B1 light", "modifications": "CL2A-SN38 drug linker on cysteines freed by TCEP reduction; positions not given; average drug loading 8 per antibody", "notes": "Antibody-drug conjugate of ARD107; also called ARD107-SN38; ARD107-SN-38"}, "B6": {"name": "ARD107: anti-CSPG4 antibody, heavy chain SEQ ID NO:3, light chain SEQ ID NO:4; H0L0 chimeric listed as SEQ ID NO: 7 / 8 (antibody)", "heavy": "B1 heavy", "light": "B1 light", "modifications": "Synthetic sequence ARD107 VH-IgG1; Synthetic sequence ARD107 VL-Igkappa"}, "B7": {"name": "H1L2: humanized ARD107 antibody, heavy chain SEQ ID NO: 33, light chain SEQ ID NO: 38 (antibody)", "heavy": "EVQLQESGPGLVKPSQTLSLTCTVSGYSITSGYYWNWIRQFPGNKLEWMGYITYDGSNNYNPSLKNRVTISRDTSKNQFSLKLSSVTAADTAVYYCADFDYWGQGTTVTVSS[… human IgG1 constant region …]", "light": "B1 light with V3Q, L15V, S22T, R39K, S72T, N77S, E79Q, I83F", "modifications": "Synthetic sequence humanized ARD107 H1 heavy chain; Synthetic sequence humanized ARD107 L2 light chain"}}, "key": {"[1]": {"molecular_target": "T1, CSPG4 (chondroitin sulfate proteoglycan 4) on human tumor cell lines (human, UniProt Q6UVK1 30-2322)", "T1 construct": "Endogenous CSPG4 on human cell lines (A2058, Malme-3M, A375, SW1353, NCI-H2052); also called HMW MAA; MCSP", "assay": "flow cytometry on Malme-3M melanoma cells, 8-point dose curve, anti-hIgG-AF488", "method": "(§1) Flow Cytometry—Cells were rinsed with PBS (phosphate buffered saline, pH 7.4) and harvested with Versene (Thermo Fisher) prior to incubation with FACs buffer (PBS+1% fetal bovine serum (FBS; source BioSun) containing test antibody or ADCs for 1 h at 4° C. Cells were rinsed and washed with FACs buffer (PBS+1% FBS) and detection was performed with anti-bigG-AF488. Cells were analyzed on a FACs Canto II (BD Biosciences). Quantitative FACs (qFACs) was performed to measure the number of antigen binding sites with the DAKO QifiKit (DAKO, Carpinteria, CA), according to the manufacturer's directions.\n(§2) FACs binding of ARD107 antibody and corresponding conjugates to CSPG4-positive cell lines was conducted. The melanoma A2058 and Malme-3M, the SW1353 chondrosarcoma, and the NCI-H1975 lung cell lines were incubated with increasing concentrations (8-point dose curve) of the antibody, conjugates (ARD107-vcMMAE or ARD107-SN38 (ARD107-CL2A-SN-38)), or isotype control (hIgG1) for 1 hr at 4° C. Detection was done with an anti-hIgG-AF488 secondary antibody."}, "[2]": {"molecular_target": "T1, CSPG4 (chondroitin sulfate proteoglycan …)", "assay": "flow cytometry on A2058 melanoma cells, 8-point dose curve, anti-hIgG-AF488", "method": "as §1, §2"}, "[3]": {"molecular_target": "T1, CSPG4 (chondroitin sulfate proteoglycan …)", "assay": "flow cytometry on SW1353 chondrosarcoma cells, 8-point dose curve, anti-hIgG-AF488", "method": "as §1, §2"}, "A2058 melanoma xenograft": {"test_system": "A2058 melanoma xenograft", "assay": "A2058 melanoma xenograft model", "assay_type": "in vivo, Balb/c mice", "details": "Example 8; for tumor burden compared to Vehicle (in words): intravenously once every 4 days for 4 doses, tumors 200 mm3 at start, p<0.025 (vcMMAE preparations), p<0.05 (Gly-vcMMAE)", "method": "(§3) Mouse Xenograft Studies—All animal experiments were conducted according to IACUC (Institutional Animal Care and Use) approved protocols following AAALAC (Association for Assessment and Accreditation of Laboratory Animal Care) guidelines. Two million A2058 or A375 melanoma cells were implanted into the right flank of Balb/c mice. Tumor growth was monitored twice weekly with caliper measurements and tumor volume calculated with the formula (V=0.5a×b^2 where a=longest and b=shortest diameter). Mice were treated intravenously with test compounds when tumors reached ˜150 mm3. Tumor growth, body weights, and general health of the mice were continuously monitored for 1 week after the final dose of the test agent. Data was graphed with Prism (GraphPad, La Jolla, CA).\nMice were implanted with A2058 melanoma cells and treated with the ADCs when tumors achieved 150 mm^3. ADCs were given intravenously once every 4 days for 4 doses (arrows) or as indicated in the legend.\nMice were implanted with A2058 melanoma cells and treated with the ADCs when tumors achieved 200 mm3. ADCs described in Example 6 were given intravenously once every 4 days for 4 doses (arrows in FIG. 7). ARD107-vcMMAE was given intravenously once every 4 days for 4 doses. […] Treatment of mice with 3 mg/kg ADC yielded complete regressions in some mice (2/8 mice in ARD107-vcMMAE (HIC) and 1/8 mice in the stochastic group)."}, "A375 melanoma xenograft": {"test_system": "A375 melanoma xenograft", "assay": "A375 melanoma xenograft model", "assay_type": "in vivo, Balb/c mice", "details": "Example 5", "method": "as §3\nMice were implanted with A2058 melanoma cells and treated with the ADCs when tumors achieved 150 mm3. ARD107-SN38 was given intravenously once every 4 days for 6 doses (arrows). ARD107-vcMMAE was given intravenously once every 4 days for 4 doses.\nThe results of the in vivo testing of ARD107-vcMMAE and ARD107-SN38 ADCs in the A375 melanoma xenograft model are shown in FIG. 5. Tumor-bearing mice was given ARD107-SN38 intravenously once every 4 days for 6 doses (arrows) or ARD107-vcMMAE once every 4 days for 4 doses. One group of mice was given 8 mg/kg ARD107-SN38 once every 4 days for 4 doses. […]"}, "NCI-H1975 lung cell line": {"molecular_target": "T2, NCI-H1975 lung cell line (Homo sapiens, UniProt Q6UVK1)", "T2 construct": "host or cells: NCI-H1975 lung carcinoma cells", "T2 sequence (Q6UVK1 30-2322)": "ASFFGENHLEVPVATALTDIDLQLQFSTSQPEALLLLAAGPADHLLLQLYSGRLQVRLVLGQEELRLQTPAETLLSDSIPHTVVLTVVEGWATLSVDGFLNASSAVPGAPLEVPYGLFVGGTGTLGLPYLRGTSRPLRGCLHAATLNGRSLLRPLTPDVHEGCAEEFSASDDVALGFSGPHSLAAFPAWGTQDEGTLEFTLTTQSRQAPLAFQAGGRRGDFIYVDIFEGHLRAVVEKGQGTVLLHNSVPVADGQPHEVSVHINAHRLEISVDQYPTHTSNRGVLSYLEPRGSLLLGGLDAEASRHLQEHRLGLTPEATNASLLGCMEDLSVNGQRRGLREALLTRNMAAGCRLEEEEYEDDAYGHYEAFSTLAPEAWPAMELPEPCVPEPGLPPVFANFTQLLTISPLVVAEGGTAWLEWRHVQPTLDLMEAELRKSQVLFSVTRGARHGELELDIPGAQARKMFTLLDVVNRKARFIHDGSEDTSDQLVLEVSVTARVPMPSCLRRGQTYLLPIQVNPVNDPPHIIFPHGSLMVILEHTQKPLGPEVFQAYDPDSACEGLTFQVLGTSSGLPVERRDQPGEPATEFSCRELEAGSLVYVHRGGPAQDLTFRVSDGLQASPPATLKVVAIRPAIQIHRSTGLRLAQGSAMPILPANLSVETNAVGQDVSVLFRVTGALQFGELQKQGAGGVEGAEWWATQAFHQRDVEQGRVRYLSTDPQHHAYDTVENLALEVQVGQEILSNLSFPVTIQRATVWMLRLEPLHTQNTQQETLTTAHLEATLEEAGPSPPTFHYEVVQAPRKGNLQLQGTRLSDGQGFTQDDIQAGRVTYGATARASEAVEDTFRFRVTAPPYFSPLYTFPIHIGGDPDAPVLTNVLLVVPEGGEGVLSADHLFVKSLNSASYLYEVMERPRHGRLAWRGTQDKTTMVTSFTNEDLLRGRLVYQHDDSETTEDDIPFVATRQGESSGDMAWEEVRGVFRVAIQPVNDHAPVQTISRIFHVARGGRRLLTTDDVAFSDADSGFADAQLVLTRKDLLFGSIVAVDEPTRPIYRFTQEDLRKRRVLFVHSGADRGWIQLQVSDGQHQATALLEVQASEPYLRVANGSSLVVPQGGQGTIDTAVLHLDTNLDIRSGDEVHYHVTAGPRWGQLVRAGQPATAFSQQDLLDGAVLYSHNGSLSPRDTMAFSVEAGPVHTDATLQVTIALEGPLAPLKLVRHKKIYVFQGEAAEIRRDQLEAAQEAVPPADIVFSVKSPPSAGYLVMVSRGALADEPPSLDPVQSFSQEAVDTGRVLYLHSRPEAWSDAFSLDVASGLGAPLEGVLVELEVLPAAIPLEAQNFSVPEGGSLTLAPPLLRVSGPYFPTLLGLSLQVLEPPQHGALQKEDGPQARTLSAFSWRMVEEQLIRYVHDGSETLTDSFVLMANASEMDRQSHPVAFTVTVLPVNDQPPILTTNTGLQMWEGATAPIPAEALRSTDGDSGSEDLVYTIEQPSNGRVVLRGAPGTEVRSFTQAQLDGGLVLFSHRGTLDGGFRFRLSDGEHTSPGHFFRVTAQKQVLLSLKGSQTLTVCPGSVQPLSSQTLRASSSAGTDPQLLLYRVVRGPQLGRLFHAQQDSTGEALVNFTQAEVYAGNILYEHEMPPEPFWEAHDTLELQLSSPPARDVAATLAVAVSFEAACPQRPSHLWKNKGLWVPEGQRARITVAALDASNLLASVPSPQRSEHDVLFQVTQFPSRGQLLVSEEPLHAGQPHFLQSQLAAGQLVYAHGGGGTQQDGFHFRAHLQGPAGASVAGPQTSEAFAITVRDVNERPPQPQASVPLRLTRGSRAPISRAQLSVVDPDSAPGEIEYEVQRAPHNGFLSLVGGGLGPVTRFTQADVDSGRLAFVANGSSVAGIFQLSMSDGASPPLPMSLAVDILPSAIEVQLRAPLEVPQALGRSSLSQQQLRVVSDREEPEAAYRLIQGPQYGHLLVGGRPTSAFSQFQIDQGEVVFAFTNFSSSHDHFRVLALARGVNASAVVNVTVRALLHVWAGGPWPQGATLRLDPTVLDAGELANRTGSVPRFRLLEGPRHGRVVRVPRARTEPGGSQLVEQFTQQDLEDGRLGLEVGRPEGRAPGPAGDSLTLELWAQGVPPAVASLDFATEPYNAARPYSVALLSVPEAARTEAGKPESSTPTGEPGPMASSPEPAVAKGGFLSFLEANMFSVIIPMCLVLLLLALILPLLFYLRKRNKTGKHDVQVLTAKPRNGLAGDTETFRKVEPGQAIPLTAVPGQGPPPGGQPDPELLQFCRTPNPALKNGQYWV", "assay": "FACS binding to NCI-H1975 lung cells", "details": "Example 2; NCI-H1975 compared with the melanoma and NCI-H2052 lines", "method": "as §1, §2\nThe CSPG4+A2058 and A375 melanoma and the lung NCI-H2052 and NCI-H1975 cell lines were incubated with increasing concentrations of the antibody (6-point dose curve) for 1 hr at 4° C. Detection was done with an anti-hIgG-AF488 secondary antibody."}, "A2058 melanoma cells": {"test_system": "A2058 melanoma cells", "assay": "Internalization by A2058 melanoma cells (Zenon pHrodo, flow cytometry)", "assay_type": "cell-based, human", "details": "overnight with pHrodo-labeled secondary antibody", "method": "Briefly, A2058 melanoma cells were plated in tissue culture media at 100,000 cells per well in 96-well tissue culture plates. The cells were pre-incubated with the antibodies prior to an overnight incubation with the pHrodo-labeled secondary antibody. The next day, the cells were harvested and analyzed by flow cytometry. Internalization was determined as the fraction of live cells that stained positive for pHrodo-RED. Data was graphed with Prism (GraphPad, La Jolla, CA). All of the humanized antibodies were internalized by the target cells (FIG. 10)."}}, "note": "Where a chain is given by its changes, count along the chain named."}
{"molecule": "B1", "values": [{"measurement": "EC50", "setting": "[1]", "result": 930, "unit": "pM"}, {"measurement": "EC50", "setting": "[2]", "result": 590, "unit": "pM"}, {"measurement": "EC50", "setting": "[3]", "result": 270, "unit": "pM"}]}
{"molecule": "B2", "values": [{"measurement": "tumor burden compared to Vehicle (in words)", "setting": "A2058 melanoma xenograft", "result": "significantly reduced tumor burden"}]}
{"molecule": "B3", "values": [{"measurement": "complete regression (number)", "setting": "A375 melanoma xenograft; 12 mg/kg intravenously once every 4 days", "result": 1}, {"measurement": "reduction of tumor burden (in words)", "setting": "A375 melanoma xenograft; ARD107-SN38 once every 4 days for 6 doses, ARD107-vcMMAE once every 4 days for 4 doses, intravenously", "result": "effective in reducing tumor burden"}]}
{"molecule": "B4", "values": [{"measurement": "complete regressions, mice", "setting": "A2058 melanoma xenograft; 3 mg/kg ADC intravenously once every 4 days for 4 doses", "result": "2/8"}, {"measurement": "tumor burden compared to Vehicle (in words)", "setting": "A2058 melanoma xenograft", "result": "significantly reduced tumor burden"}]}
{"molecule": "B5", "values": [{"measurement": "EC50", "setting": "[2]", "result": 530, "unit": "pM"}]}
{"molecule": "B6", "values": [{"measurement": "binding (in words)", "setting": "NCI-H1975 lung cell line", "result": "much less"}]}
{"molecule": "B7", "values": [{"measurement": "internalization by target cells", "setting": "A2058 melanoma cells", "result": "better internalization"}]}
